# Results from ChEMBL document CHEMBL1156829.
# In all, about 5,400 compounds were measured (“IFI”: median about 2, highest 2% from about 22 on). Some of the results follow.
# Assay: NOVARTIS: Inhibition Frequency Index (IFI) - the number of HTS assays where a compound showed > 50% inhibition/induction, expressed as a percentage of the number of assays in which the compound was tested.
# Format: functional
row,SMILES,IFI [%]
1,CCCCCc1ccc(-c2cn3nc(CCCCC)sc3n2)cc1,0
2,Cc1ccc2ccc3ccc(C)nc3c2n1,17.1
3,COc1ccc(OC)c(-c2ccc(O)c(CNCC3(O)CCCCC3)c2)c1,1.71
4,CCOc1ccc(NC(=O)CSc2nc3cc(OCC)ccc3[nH]2)cc1,0
5,CCOC(=O)c1cnn(-c2ccnc3cc(Cl)ccc23)c1CNC(C)c1cccs1 (stereo not drawn),2.63
6,COc1cc(C2CC(=O)NC(C)=C2C(=O)OC(C)C)c(OC)cc1Br (stereo not drawn),0
7,N#Cc1c2c(c(N3CCN(C(c4ccccc4)c4ccccc4)CC3)n3c1nc1ccccc13)CCC2,0
8,COc1ccc(-c2c[n+](Cc3ccccc3Cl)c3n2CCC3)cc1,2.44
9,CCOC(=O)c1c(-c2ccccc2)oc2c1C(=O)c1ccccc1C2=O,1.47
10,Cc1cc(C)n(CC(O)Cn2c3ccc(Br)cc3c3cc(Br)ccc32)n1 (stereo not drawn),2.04
11,O=C(Nc1ccc(Oc2ccccc2)cc1)NC(CN1CCCC1)c1ccccc1 (stereo not drawn),7.04
12,O=C(CSc1ccc2nnc(-c3cccs3)n2n1)Nc1ccccc1,0
13,Cc1nc2c(-c3ccccc3)c(C)nn2c(C)c1CC(=O)NCc1ccccn1,0
14,COc1cc(OC)cc(C(=O)Oc2ccccc2-c2nc3cc(C)ccn3c2NC(C)(C)CC(C)(C)C)c1,2.8
15,O=C(Nc1ccc(C2=NCCN2)cc1)c1cccc2c(C(=O)Nc3ccc(C4=NCCN4)cc3)cccc12,1.68
16,CCCCc1ccc(C(=O)N(C)CCCNc2ccnc3cc(Cl)ccc23)cc1,3.16
17,CC[N+]1(CCOc2ccc(C34CC5CC(CC(C5)C3)C4)cc2)CCCCC1,7.69
18,CCOC(=O)C1CCN(C(=O)CN2C(=O)c3ccccc3C2c2c[nH]c3ccccc23)CC1 (stereo not drawn),6.67
19,COC(=O)C1=C(C)NC2=C(C(=O)CC(c3ccc(OC)c(OC)c3)C2)C1c1cccs1 (stereo not drawn),0
20,CCCCN1C=Nc2cc(C(=O)NCc3ccc(OC)cc3)ccc2C1,1.21
21,O=C(Cn1c2ccccc2c(=O)c2cc([N+](=O)[O-])ccc21)Nc1cccc(Cl)c1,1.15
22,C/C(=C\c1ccccc1)CN(C(=O)c1ccc(C(C)(C)C)cc1)C(C)C,2.15
23,COc1ccc(CCNC2(Cc3ccccc3)CC(C)N(C)CC2C)cc1OC (stereo not drawn),5.46
24,CCCCN(CCCC)CCCNc1ncnc2c1[nH]c1ccc(C)cc12,2.5
25,Cc1cc(C)nc(/N=C(\N)Nc2ccccc2O)n1,3

row,SMILES,IFI [%]
1,COc1ccc(NC(=O)C2c3ccccc3C(=O)N(CC(C)C)C2c2cccs2)cc1OC (stereo not drawn),3.03
2,CCCCc1ccc(C(=O)N(CC(=O)Nc2cc(C(C)(C)C)nn2-c2ccc(Cl)cc2)C(C)C)cc1,1.91
3,Cc1ccc([N+](=O)[O-])cc1-c1ccc(/C=C2/SC(=S)N(CC(=O)O)C2=O)o1,0
4,Cc1cc(N2CCN(C/C=C/c3ccccc3)CC2)n2c(nc3ccccc32)c1C#N,2.78
5,CCCCCN(C(=O)c1cccc(OC)c1)C(CC)c1nc2ccccc2c(=O)n1-c1ccccc1OC (stereo not drawn),1.96
6,Cc1ccc(/C=C2/SC(=Nc3ccccc3)NC2=O)c(C)c1,3.41
7,COc1cc(OC)cc(N2C(=O)N(Cc3ccc(C(C)(C)C)cc3)c3ccccc3S2(=O)=O)c1,0
8,CC(C)c1cccc(C(C)C)c1NC(=O)N(Cc1ccccc1)C(C)c1nc2ccccc2c(=O)n1-c1ccc(Br)cc1 (stereo not drawn),5.56
9,Oc1ccc2cc(-c3nc4ccccc4[nH]3)c3nc4ccccc4n3c2c1,0
10,CC(=NNC(=N)N)c1ccc(C)cc1,0
11,Cc1ccc(C(=O)NCCNC(=O)CN2CCOCC2)cc1,0
12,COc1ccc(C2CC(=O)C3=C(C2)NC(C)=C(C(=O)OC2CCCC2)C3c2ccc(OC)cc2)cc1 (stereo not drawn),7.41
13,CCN1/C(=C/c2cccc[n+]2C)Sc2ccc(OC)cc21,15.4
14,Cc1c(Cl)cccc1NC(=O)CCC(=O)NNC(=O)c1ccccc1,0
15,O=C(CC(=NNc1nc(NN=C(CC(=O)C(F)(F)F)C(F)(F)F)nc(N(c2ccccc2)c2ccccc2)n1)C(F)(F)F)C(F)(F)F,0
16,O=C1C(Nc2ccccc2)=C(n2nnc3ccccc32)C(=O)c2ccccc21,9.09
17,O=C(Nc1ccc(-n2cccn2)cc1)C1CCN(C/C=C/c2ccccc2)CC1,0
18,Cc1ccn2c(NC(C)(C)CC(C)(C)C)c(-c3ccccc3OC(=O)c3cccc(Cl)c3)nc2c1,3.74
19,COc1ccccc1-c1nnc(Nc2nc3cc4c(cc3s2)OCO4)o1,0
20,COc1ccccc1N1C(=N)S/C(=C\c2ccc(OCc3ccccc3F)cc2)C1=O,2.33
21,CCCCNC(=O)c1ccc2c(c1)N=C(CC(C)c1ccccc1)N(C1CCCCC1)C2 (stereo not drawn),2.47
22,CCCCN(C(=O)Nc1c(C(C)C)cccc1C(C)C)C(CC)c1nc2ccccc2c(=O)n1-c1cccc(Cl)c1 (stereo not drawn),1.92
23,COc1ccc(CCNC(=O)CN(c2ccc(OC)c(OC)c2)S(=O)(=O)c2ccc(C)cc2)cc1OC,0
24,CCN(CC)CCN(Cc1cc2ccc(C)cc2[nH]c1=O)C(=S)NC(C)c1ccccc1 (stereo not drawn),8.41
25,CCOC(=O)c1cnc2c(C)cc(C)cc2c1Nc1ccc(OC)c(OC)c1,0

row,SMILES,IFI [%]
1,N=c1ccn(CC(=O)N2CCCc3ccccc32)c2ccccc12,0
2,Clc1ccc(Nc2nc(Nc3ccc(Cl)cc3)c3ccccc3n2)cc1,3.73
3,OC(CNCc1ccco1)Cn1c2ccc(Cl)cc2c2cc(Cl)ccc21 (stereo not drawn),0
4,CC(C)n1nnnc1CN1CCN(c2ccccc2F)CC1,1.67
5,Nc1nnc(CCSc2ccc(Cl)cc2)s1,0
6,COc1ccccc1CNc1ncc(C(=O)NCc2ccccc2)c(NCCc2ccccc2)n1,1.92
7,COc1cccc(C2C(C(=O)Nc3ccc(C)cc3C)=C(C)Nc3c(C(=O)Nc4ccccc4)cnn32)c1 (stereo not drawn),0
8,CN(C)CCNC(=O)COc1ccc(-c2nc3ccccc3s2)cc1CN(C)C,3.42
9,CCCn1c(C=NNc2nc3ccccc3[nH]2)nc2ccccc21,0
10,Clc1ccc(-n2cc(-c3ccccc3)c3c(N4CCC(Cc5ccccc5)CC4)ncnc32)cc1,8.33
11,COC(=O)c1ccc(C2C3=C(O)CC(c4ccc(F)cc4)CC3=Nc3ccccc3N2C(=O)c2ccccc2)cc1 (stereo not drawn),4.76
12,Cc1ccc(Cl)cc1N1CCN(S(=O)(=O)c2ccc3c(c2)oc(=O)n3C)CC1,0
13,CC(=O)N(C)C1=C(N2CCCCCC2)C(=O)c2ccccc2C1=O,22.5
14,COCCCNc1nc2nonc2nc1N(C)C1CCOCC1,0
15,COc1cc(C)c(CCNCCCCCCNCCc2cc(OC)c(OC)cc2C)cc1OC,2.38
16,Cc1ccc(NC(=O)c2ccc(NCCCN3CCC(C)CC3)c([N+](=O)[O-])c2)cc1F,0
17,CCN(CC)CCCNCC(=O)N1c2ccccc2Sc2ccccc21,0
18,CC(=C(Cl)Cl)/C(Br)=C(\Br)CO,5
19,Cc1ccc2c(c1)N(C)/C(=C/c1cccc[n+]1C)S2,15.4
20,CN1CCCC(CNC(=O)c2cnn(-c3ncc4c(n3)-c3ccccc3SC4)c2C2CC2)C1 (stereo not drawn),1.79
21,COc1ccccc1NC1=C(N2CCCCC2)C(=O)c2ccccc2C1=O,17.6
22,CC[n+]1c(/C=C2\Sc3cc(NC(C)=O)ccc3N2C)ccc2ccccc21,7.69
23,CCN(CC)CCNc1ccnc2cc(Cl)ccc12,7.14
24,Cc1ccc(C)c(N2CCN(CCCNC(=O)c3ccc(CSc4nc5cnccc5[nH]4)cc3)CC2)c1,8.57
25,OC(CNc1cccc2ccccc12)Cn1c2ccc(Cl)cc2c2cc(Cl)ccc21 (stereo not drawn),5.77

row,SMILES,IFI [%]
1,CCCCN(CCCC)S(=O)(=O)c1cc(Br)cc2c1N(C(C)=O)CC2,0
2,COc1ccc(C(=O)NC(c2ccc(C)cc2)c2cc(Cl)c3cccnc3c2O)cc1 (stereo not drawn),0
3,COc1cccc(C(NC(=O)c2ccccc2)c2ccc3cccnc3c2O)c1 (stereo not drawn),10.6
4,CC(=O)N(C1=C(N2CCOCC2)C(=O)c2ccccc2C1=O)c1ccc(I)cc1,18.7
5,CC1CCCCN1CCCNc1ncc(C(=O)NCCc2ccccc2)c(NCC2CCCCC2)n1 (stereo not drawn),2.86
6,C/C(C=NNC(=O)c1ccco1)=C\c1ccccc1,0
7,CCOc1ccc(C=NNC(=O)CCn2nnc3ccccc32)cc1,0
8,CC(=O)c1ccc(NC(=O)CSc2nnc3c4c(-c5ccc(F)cc5)csc4ncn23)cc1,5.88
9,CCOC(=O)c1nnn(-c2nonc2N)c1-c1ccc(OC)cc1,0
10,CCOc1ccc(C(=O)C(C)[n+]2cc(-c3ccc(OC)cc3)n3c2CCC3)cc1 (stereo not drawn),8
11,O=C(c1ccccc1F)N1CCN(Cc2ccccc2C(F)(F)F)CC1,1.18
12,Cc1ccccc1Nc1nc(NCCO)c2ccccc2n1,0
13,Cc1ccc(C(=O)N(CCc2ccccc2)C(C)c2nc3ccccc3c(=O)n2-c2cccc(Cl)c2C)cc1[N+](=O)[O-] (stereo not drawn),1.92
14,CCSc1nc2sc3c(c2c(=O)n1CC)CCN(C)C3,8
15,CCC(C)OC(=O)C1=C(C)NC2=C(C(=O)CC(c3ccc(Cl)cc3)C2)C1c1cccc(O)c1 (stereo not drawn),2.44
16,CCCCCN(C(=O)c1ccc(Cl)cc1)C(CC)c1nc2ccccc2c(=O)n1-c1ccccc1OC (stereo not drawn),1
17,Cn1nc(C(=O)N2CCc3ccccc3C2)c2c1CCC(N1CCN(Cc3cccc(F)c3)CC1)C2 (stereo not drawn),1.22
18,CCCn1cc(SCC(=O)NCc2ccco2)c2ccccc21,1.15
19,CCCCNC(=O)c1ccc2c(c1)N=C(c1cccnc1)N(CCN1CCOCC1)C2,2.44
20,COc1ccc(S(=O)(=O)Nc2ccc(N3CCC(Cc4ccccc4)CC3)c(C(=O)NC(C)C)c2)cc1,2.08
21,O=C1c2ccc(-c3nc(-c4ccccc4)[nH]c3-c3ccccc3)cc2-c2cc(-c3[nH]c(-c4ccccc4)nc3-c3ccccc3)ccc21,0
22,CCOc1ccc(S(=O)(=O)c2cn(Cc3ccccc3C)c3ccc(OC)cc3c2=O)cc1,0
23,O=C(NNc1nc2ccccc2nc1Cl)Nc1ccc(Cl)cc1,2.4
